We go through 45 molecules from paper PMC4336329 (PLoS ONE, 2015).

In all, about 310,000 compounds went through this assay and about 14,000 (4.5%) showed an effect of 50% or more. Effects have a minus sign here. Some of the results follow.
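Note: peak tail current of the secondary pulse compared with the same well before compound.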

For the test, the target named is human ether-à-go-go-related gene (hERG) potassium channel (human, UniProt Q12809). The test can be described thus: primary screen, population patch clamp on CHO cells stably expressing hERG.
Chain of human ether-à-go-go-related gene (hERG) potassium channel (Q12809 whole entry, looked up): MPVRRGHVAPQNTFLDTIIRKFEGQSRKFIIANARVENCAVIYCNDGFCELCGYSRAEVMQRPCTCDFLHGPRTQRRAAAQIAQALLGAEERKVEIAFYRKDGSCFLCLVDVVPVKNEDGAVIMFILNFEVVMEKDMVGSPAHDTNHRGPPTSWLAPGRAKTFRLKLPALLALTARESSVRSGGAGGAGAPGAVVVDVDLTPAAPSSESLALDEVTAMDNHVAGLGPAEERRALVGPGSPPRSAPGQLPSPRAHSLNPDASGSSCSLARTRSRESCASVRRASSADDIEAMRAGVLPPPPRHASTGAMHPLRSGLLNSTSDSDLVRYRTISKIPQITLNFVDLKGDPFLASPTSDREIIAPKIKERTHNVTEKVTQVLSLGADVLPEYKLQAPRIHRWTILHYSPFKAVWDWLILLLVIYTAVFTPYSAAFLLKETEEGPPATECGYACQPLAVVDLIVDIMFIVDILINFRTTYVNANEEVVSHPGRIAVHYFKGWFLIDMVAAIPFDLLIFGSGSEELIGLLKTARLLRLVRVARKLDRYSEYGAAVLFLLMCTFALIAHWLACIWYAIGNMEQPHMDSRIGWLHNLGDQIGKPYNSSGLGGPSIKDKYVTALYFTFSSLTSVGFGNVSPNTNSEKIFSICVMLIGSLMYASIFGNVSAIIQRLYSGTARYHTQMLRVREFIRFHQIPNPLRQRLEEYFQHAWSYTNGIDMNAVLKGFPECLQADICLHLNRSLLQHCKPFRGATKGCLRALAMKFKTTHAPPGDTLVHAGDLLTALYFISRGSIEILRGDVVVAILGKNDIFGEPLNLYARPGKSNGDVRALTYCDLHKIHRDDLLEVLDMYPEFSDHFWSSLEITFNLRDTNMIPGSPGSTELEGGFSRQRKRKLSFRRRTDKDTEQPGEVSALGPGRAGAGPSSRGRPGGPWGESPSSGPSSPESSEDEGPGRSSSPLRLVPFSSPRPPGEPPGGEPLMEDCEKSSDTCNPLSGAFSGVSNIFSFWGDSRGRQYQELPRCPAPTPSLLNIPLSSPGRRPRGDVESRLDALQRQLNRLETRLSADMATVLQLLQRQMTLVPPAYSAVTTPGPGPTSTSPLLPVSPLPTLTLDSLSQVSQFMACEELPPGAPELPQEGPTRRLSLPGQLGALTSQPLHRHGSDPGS
Regarding `O=C(COc1ccc([N+](=O)[O-])cc1)NCc1ccncc1`, the “hERG current change (%, negative = inhibition) at 10uM” value is listed as -67.6%.

In the case of `O=C(CNC(=O)c1ccc(Br)o1)NNC(=O)c1ccc(Br)cc1`, the “hERG current change (%, negative = inhibition) at 10uM” value was -35.6%.

Regarding `O=c1c(Cc2ccc(F)cc2)c(O)ccn1CCc1cnc[nH]1`, the “hERG current change (%, negative = inhibition) at 10uM” value was found to be 47.3%.

With `COc1ccc(C(=O)Nc2scc(-c3ccc(Cl)cc3Cl)c2C(N)=O)cc1`, the “hERG current change (%, negative = inhibition) at 10uM” value came out at 2.19%.

Turning to `CCn1c(-c2ccc(C)cc2)n[nH]c1=S`, the “hERG current change (%, negative = inhibition) at 10uM” value was determined as 14%.

Consider `CCN(CC)CCN(C(=O)c1cccc([N+](=O)[O-])c1)c1nc2ccc(OC)cc2s1.Cl`, for which the “hERG current change (%, negative = inhibition) at 10uM” value is on record as -39.1%.

As to `COc1ccc2c(c1)cc(C(=O)N[C@@H](CCSC)C(=O)N1CCC[C@H]1C(=O)O)n2C`, the “hERG current change (%, negative = inhibition) at 10uM” value is given as -2.17%.

As for `Cc1ccc(NC(=S)Nc2cccc3cnccc23)cc1`, the “hERG current change (%, negative = inhibition) at 10uM” value is 15.1%.

In the case of `O=C1CCCC/C1=C/Nc1ccc(C(=O)O)cc1`, the “hERG current change (%, negative = inhibition) at 10uM” value is -5.05%.

Consider `COCCn1c(SCC(=O)N2CCCCC2)nc2ccccc2c1=O`, for which the “hERG current change (%, negative = inhibition) at 10uM” value is -49.3%.

For `Oc1c(Cl)cc(CN2CCCCC2)c2cccnc12`, the “hERG current change (%, negative = inhibition) at 10uM” value worked out at 12.9%.

With `Cc1c(C(=O)N2CCOCC2)sc(NC(=O)CCl)c1C#N`, the “hERG current change (%, negative = inhibition) at 10uM” value came out at 17.9%.

`Cc1cccc(N(Cc2nnc3n2CCCCC3)C(=O)Nc2ccccc2)c1`: the “hERG current change (%, negative = inhibition) at 10uM” value is recorded as -0.898%.

For `Cc1cc2ccccc2n1CCNC(=O)Cc1ccccc1`, the “hERG current change (%, negative = inhibition) at 10uM” value came out at 8.25%.

Turning to `Cc1nnc(N/N=C/c2ccc([N+](=O)[O-])cc2)n1N`, the “hERG current change (%, negative = inhibition) at 10uM” value is given as 7.81%.

For `CCCc1ccc(Oc2cc(N3CCOCC3)nc(-c3ccccc3)n2)cc1`, the “hERG current change (%, negative = inhibition) at 10uM” value came to 21.5%.

Regarding `Cc1cc(-n2[nH]c(C)c(C)c2=O)nc(-c2ccccc2O)n1`, the “hERG current change (%, negative = inhibition) at 10uM” value is 8.87%.

`COc1cccc(NC(=O)c2ccccc2-c2nc(-c3ccccc3)no2)c1`: the “hERG current change (%, negative = inhibition) at 10uM” value is 3.33%.

Take `COc1ccc(CCNC(=O)C(=O)N2CCCC2)cc1OC`: the “hERG current change (%, negative = inhibition) at 10uM” value is recorded as 19.3%.

On to `CCCCn1c(O)c(C(CC)=Nc2ccc(OCC)cc2)c(=O)[nH]c1=O`, for which the “hERG current change (%, negative = inhibition) at 10uM” value is on record as -19.7%.

Turning to `CCOC(=O)c1c(CN2CCOCC2)oc2ccc(OC(C)=O)cc12`, the “hERG current change (%, negative = inhibition) at 10uM” value was found to be 13.9%.

`CNc1ccc(Br)cc(C(=O)/C=C/c2cc(OC)ccc2OC)c1=O`: the “hERG current change (%, negative = inhibition) at 10uM” value is recorded as -3.83%.

`COc1ccc(NC(=O)CSCC(=O)Nc2nnc(CC(C)C)s2)cc1`: the “hERG current change (%, negative = inhibition) at 10uM” value stood at 15.1%.

For the molecule `N#CC(C(=O)NC1CCCCC1)=C1CCCCC1`, the “hERG current change (%, negative = inhibition) at 10uM” value is -0.798%.

For `Cl.c1ccc2c(N3CCOCC3)c3c(nc2c1)CCC3`, the “hERG current change (%, negative = inhibition) at 10uM” value is -35.2%.

Regarding `CCOc1ccccc1OC(=O)CN1C(=O)c2ccccc2C1=O`, the “hERG current change (%, negative = inhibition) at 10uM” value worked out at 11.6%.

On to `O=[N+]([O-])NC1=NCCN1Cc1ccc(Cl)nc1`, for which the “hERG current change (%, negative = inhibition) at 10uM” value stood at 12.7%.

Turning to `CCOC(=O)C1(CCCc2ccccc2)CCN(C(=O)CSC)CC1`, the “hERG current change (%, negative = inhibition) at 10uM” value is listed as -24.1%.

For the molecule `O=C(Nc1cc(Cl)ccc1-n1cncn1)c1ccco1`, the “hERG current change (%, negative = inhibition) at 10uM” value was -0.0346%.

`C=C(C)C(=O)Nc1cccc(C2=NOC3(C2)C[C@@H](C(N)=O)N(C(=O)c2ccc(Cl)cc2)C3)c1` (stereo partly drawn): the “hERG current change (%, negative = inhibition) at 10uM” value was -27.8%.

Regarding `O=C(O)c1ccc(NCCC2=CCCCC2)c([N+](=O)[O-])c1`, the “hERG current change (%, negative = inhibition) at 10uM” value was determined as 73.7%.

Consider `CNc1oc(-c2ccccc2Cl)nc1C#N`, for which the “hERG current change (%, negative = inhibition) at 10uM” value is given as -6.32%.

As for `O=C(N/N=C/C=C/c1ccc([N+](=O)[O-])cc1)C1COc2ccccc2O1` (stereo not drawn), the “hERG current change (%, negative = inhibition) at 10uM” value is on record as -47.1%.

For the molecule `Cc1cccc(C(=O)Nc2nnc(C3=COCCO3)o2)c1`, the “hERG current change (%, negative = inhibition) at 10uM” value worked out at 19.2%.

Regarding `COc1ccc(OC)c(C2SCCN2S(=O)(=O)c2cccc(C(F)(F)F)c2)c1` (stereo not drawn), the “hERG current change (%, negative = inhibition) at 10uM” value is on record as 10.9%.

For the molecule `COc1ccc(CCN2C(=O)CC(N3CCN(C/C=C/c4ccccc4)CC3)C2=O)cc1OC` (stereo not drawn), the “hERG current change (%, negative = inhibition) at 10uM” value is reported as -43.9%.

As to `CS(=O)(=O)Nc1ccccc1C(=O)N1CCCC1`, the “hERG current change (%, negative = inhibition) at 10uM” value was 5.96%.

`O=C(NC1CCCCC1)C(c1ccccc1)N(C(=O)Cc1ccsc1)c1ccccc1` (stereo not drawn): the “hERG current change (%, negative = inhibition) at 10uM” value is 3.59%.

With `COCCCN1C(=O)c2ccc(C(=O)NCCc3ccccc3)cc2C1=O`, the “hERG current change (%, negative = inhibition) at 10uM” value is given as -5.36%.

`CN1CCN(C2=C(Cl)C(=O)N(c3ccc(Cl)cc3)C2=O)CC1`: the “hERG current change (%, negative = inhibition) at 10uM” value is recorded as -7.49%.

Consider `Cc1ccc(Cl)c(Nc2ccccc2C(=O)[O-])c1Cl.[Na+]`, for which the “hERG current change (%, negative = inhibition) at 10uM” value is -8.67%.

`O=C(CSc1nc2ccc([N+](=O)[O-])cc2s1)NC1CCS(=O)(=O)C1` (stereo not drawn): the “hERG current change (%, negative = inhibition) at 10uM” value was -5.62%.

Turning to `CCOC(=O)c1cc2sccc2n1Cc1ccc(C#N)cc1`, the “hERG current change (%, negative = inhibition) at 10uM” value was -25.2%.

Take `CCc1nc(Nc2ccc3c(c2)OCCO3)c2oc3ccccc3c2n1.Cl`: the “hERG current change (%, negative = inhibition) at 10uM” value is 4.26%.

On to `COC(=O)C1=C(C)NC(C)=C(C(=O)OCC2CCCO2)C1c1ccc(Cl)c([N+](=O)[O-])c1` (stereo not drawn), for which the “hERG current change (%, negative = inhibition) at 10uM” value is given as -10.3%.
